Measured values published in PMC11271582, “Pan-serotype dengue virus inhibitor JNJ-A07 targets NS4A-2K-NS4B interaction with NS2B/NS3 and blocks replication organelle formation” (Nature Communications, 2024).

Target: interaction between NS1 and the NS4A-2K-NS4B precursor (Dengue virus type 2, UniProt P29990)
Assay type: cell-based, DENV-2
Protocol: This tagged NS1 is fully functional as it rescues the replication of a DENV NS1 deletion mutant unable to replicate on its own[18]. Lysates of cells cultured in the presence of various concentrations of JNJ-A07 for 14 h were evaluated either directly or used for HA-specific pull-down and proteins were analyzed by quantitative western blot (Fig. 5e). […] An analogous increase was quantified in the pull-down samples (Fig. 5g). […] The same result was found when we analyzed precursor interaction with NS1 in the polyprotein (pIRO-D) system (Supplementary Fig. 5c).

COc1cc(NC(C(=O)N2CCc3ccc(OC(F)(F)F)cc32)c2ccc(Cl)cc2)cc(OCCCC(=O)O)c1 (centres unmarked) [JNJ-A07]
concentration without reduction of the NS1 interaction relative to that required to prevent precursor interaction with NS2B/NS3 (EC50 6.0 nM) (higher): around 165 fold
effect on NS4A-2K-NS4B interaction with NS1 (various concentrations, 14 h): did not reduce the NS4A-2K-NS4B interaction with NS1
